Test results taken from PMC4336329 (PLoS ONE, 2015).
In all, about 310,000 compounds went through this assay and about 2,200 (0.71%) showed an effect of 50% or more. The effect is printed as a negative number. The list shows a part of the results.

What follows are compounds tested against human ether-à-go-go-related gene (hERG) potassium channel (human, UniProt Q12809) (assay: primary screen, population patch clamp on CHO cells stably expressing hERG).
Chain of human ether-à-go-go-related gene (hERG) potassium channel (Q12809 whole entry, looked up): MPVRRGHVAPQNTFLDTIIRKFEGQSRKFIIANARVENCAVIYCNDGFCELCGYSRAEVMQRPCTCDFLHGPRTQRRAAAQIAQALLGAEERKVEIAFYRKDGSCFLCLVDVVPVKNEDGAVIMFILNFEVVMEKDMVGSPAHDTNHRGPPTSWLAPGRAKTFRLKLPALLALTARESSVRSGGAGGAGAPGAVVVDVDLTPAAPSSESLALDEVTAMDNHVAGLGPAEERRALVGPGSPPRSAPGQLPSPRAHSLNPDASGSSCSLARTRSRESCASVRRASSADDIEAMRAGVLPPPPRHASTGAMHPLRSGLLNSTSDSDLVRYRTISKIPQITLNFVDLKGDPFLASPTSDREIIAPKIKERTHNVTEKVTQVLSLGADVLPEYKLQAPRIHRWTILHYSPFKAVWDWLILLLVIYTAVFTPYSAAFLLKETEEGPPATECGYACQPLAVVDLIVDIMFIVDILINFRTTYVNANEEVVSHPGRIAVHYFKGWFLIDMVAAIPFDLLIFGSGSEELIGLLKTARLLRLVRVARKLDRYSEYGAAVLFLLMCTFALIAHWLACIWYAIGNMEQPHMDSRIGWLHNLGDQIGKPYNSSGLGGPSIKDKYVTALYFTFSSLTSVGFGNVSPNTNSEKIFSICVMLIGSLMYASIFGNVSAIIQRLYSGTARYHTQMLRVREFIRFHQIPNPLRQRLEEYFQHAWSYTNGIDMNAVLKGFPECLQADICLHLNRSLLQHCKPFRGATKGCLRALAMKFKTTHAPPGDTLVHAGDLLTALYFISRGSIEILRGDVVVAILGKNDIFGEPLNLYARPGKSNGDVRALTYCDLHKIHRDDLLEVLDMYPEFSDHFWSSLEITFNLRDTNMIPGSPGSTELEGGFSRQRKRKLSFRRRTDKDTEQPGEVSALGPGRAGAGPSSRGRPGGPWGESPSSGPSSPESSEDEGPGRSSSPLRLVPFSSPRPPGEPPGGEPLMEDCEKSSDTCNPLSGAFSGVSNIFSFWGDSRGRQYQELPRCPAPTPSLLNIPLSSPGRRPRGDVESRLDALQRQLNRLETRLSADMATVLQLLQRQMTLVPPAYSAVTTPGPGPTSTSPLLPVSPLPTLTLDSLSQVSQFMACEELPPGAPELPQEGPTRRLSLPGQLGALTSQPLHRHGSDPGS

Row | SMILES | hERG current change (%, negative = inhibition) at 1uM [%]
1 | O=C(c1ccccc1)c1cccc[n+]1[O-] | 16.8
2 | CCOc1cc(/C=N/Nc2nc(-c3cccc(S(=O)(=O)N4CCCC4)c3)cs2)ccc1O | 8.88
3 | CC1CCN(S(=O)(=O)c2ccc(NC(=O)N3c4ccccc4Sc4ccccc43)cc2)CC1 | 13.1
4 | Cc1ccc(-c2nnc(-c3ccc(NC(=O)c4ccco4)cc3)o2)cc1 | 14.3
5 | O=C(OCC(=O)N1CCCc2ccccc21)c1cncc(Br)c1 | -3.78
6 | Cc1ccccc1OCc1nc(-c2ccc(NC(=O)c3ccco3)cc2)no1 | 7.14
7 | CC1CCN(C(=O)Nc2ccc3nsnc3c2)CC1 | 14
8 | Cc1nn2c(N3CCCC3)c3c(nc2c1-c1ccccc1)CCC3 | 10.8
9 | COc1ccccc1CN(C)CC(=O)Nc1ccc(Cl)cc1F | 13.8
10 | O=C(Nc1cccc(C(=O)N2CCN(c3ccccc3)CC2)c1)c1ccco1 | 8.21
11 | O=C(O)CCc1ccc(-c2cccs2)o1 | 11.8
12 | CCCn1nnc(NC(=O)COc2ccc(Cl)cc2)n1 | 6.25
13 | COc1ccc(NC(=O)CCCSc2ccccc2)cc1 | 10.8
14 | CCOc1ccc(NC(=S)NNc2ccnc3cc(Cl)ccc23)cc1 | 15.1
15 | CCOc1ccccc1NC1=NCC(=O)N1Cc1ccc(F)cc1 | 5.09
16 | CC(c1ccc(F)cc1)n1cc(C(=O)NCc2ccc3c(c2)OCO3)nn1 (stereo not drawn) | 8.22
17 | COc1ccc(NC(=O)/C=C/c2ccc(C)o2)cc1S(=O)(=O)N1CCOCC1 | 3.88
18 | CC1CCN(C2CC(=O)N(c3ccc(Br)cc3Br)C2=O)CC1 (stereo not drawn) | 12.5
19 | CN(C)S(=O)(=O)n1cc(/C=C(\NC(=O)c2ccccc2Cl)C(=O)NCCN2CCOCC2)c2ccccc21 | 9.04
20 | COc1cc(Br)c(/C=C/c2ccc3cccc(O)c3n2)cc1OC | 13.4
21 | COc1ccc(NCC(=O)N/N=C/C=C/c2ccccc2[N+](=O)[O-])cc1 | 8.16
22 | Cc1ccsc1C(=O)OCC(=O)Nc1nnc(-c2ccccc2)o1 | 11.9
23 | CCC(C(=O)NC1CCCCCC1)n1nc(C)n2c(cc3occc32)c1=O (stereo not drawn) | -16.8

Row | SMILES | hERG current change (%, negative = inhibition) at 1uM [%]
24 | COc1ccc(CC2C(=O)OC(C)(C)OC2=O)c(Cl)c1OC | 15.4
25 | CCOC(=O)N1CCN(C(=O)/C(=C/c2ccc(OC)c(OC)c2)NC(=O)c2ccccc2)CC1 | 6.89
26 | CCOc1cc(N2CCOCC2)c(OCC)cc1NC(=O)c1ccc(C)s1 | -1.15
27 | CCOc1ccccc1N1CCN(C(=O)c2cc(-c3cc(OC)ccc3OC)nc3ccccc23)CC1 | 8.96
28 | Cc1nn(Cc2noc(C(=O)NCc3ccc(F)cc3)n2)c(C)c1Br | 9.1
29 | Cc1ccc(S(=O)(=O)N2CCOCC2)c2nsnc12 | 2.18
30 | Nc1ccc(-c2c3ccc(=O)cc-3oc3cc(O)ccc23)cc1C(=O)O | 5.51
31 | CCOc1cc(C(=O)Nc2ccc(S(=O)(=O)N3CCCCC3)cc2)ccc1OCC(=O)N1CCOCC1 | 5.05
32 | COc1ccc(Cl)cc1NC(=O)Cn1nnc(C(=O)NCc2ccc3c(c2)OCO3)c1N | 7.91
33 | CCOC(=O)C(=Cc1ccc(-n2cncn2)cc1)C(=O)OCC | 9.18
34 | Cc1ccc(C2=N/C(=C\c3c(C)nn(-c4ccccc4)c3N3CCCC3)C(=O)O2)cc1 | 9.33
35 | Cc1ccc(CNC(=O)CSc2nc3ccsc3c(=O)n2Cc2ccccn2)cc1 | 7.72
36 | CCOC(=O)c1cc(C)nc(N2CCCCC2)c1C#N | 11.3
37 | Cc1ccc(C(=O)COC(=O)CNS(=O)(=O)c2ccccc2)cc1[N+](=O)[O-] | 6.72
38 | CC(C)CCCNc1nc(N2CCOCC2)nc(N2CCOCC2)n1 | 10.3
39 | CCOc1ccc(N(C)S(=O)(=O)c2c[nH]c(C(=O)OC)c2)cc1 | 6.59
40 | Cc1ccc(NC(=O)C2CCCN(c3ncccn3)C2)cc1F (stereo not drawn) | 3.69
41 | CC(C)c1nnc(NC(=O)CCC(=O)NCCc2ccccc2)s1 | 11.3
42 | O=S(=O)(c1cccs1)N1CCN(S(=O)(=O)c2cccs2)CC1 | 5.93
43 | COc1ccc([C@H]2[C@@H](C#N)[C@H](C#N)N3CCCN23)cc1 | 14.3
44 | COc1cc(NS(=O)(=O)c2ccc(-c3ccc(=O)[nH]n3)o2)cc(OC)c1OC | -6.48
45 | O=C(Nc1ccccc1C(F)(F)F)C1CC(=O)N(c2ccccc2F)C1 (stereo not drawn) | -1.34
46 | CCOc1ccccc1OCCCC(=O)NCCc1ccc(S(N)(=O)=O)cc1 | 10.8

Row | SMILES | hERG current change (%, negative = inhibition) at 1uM [%]
47 | Cc1cccc(NC(=O)c2ccccc2OCC(=O)N2CCCC2)c1C | 11.3
48 | CCCOC(=O)c1ccc(NC(=O)C(CC)CC)cc1 | 7.53
49 | CCCN(CC(=O)Nc1ccccc1C)C(=O)CCl | 11.5
50 | CCCCSCCCNC(=O)c1ccc(CS(=O)(=O)c2ccc(OC)cc2)o1 | -5.71
51 | CC1(C)Cc2c(cnn2-c2cccc(F)c2)C(NC(=O)CCc2cnccn2)C1 (stereo not drawn) | 5.43
52 | C[C@H](NC(=O)c1ccccc1Cl)C(=O)Nc1ccccc1F | 0.909
53 | COCCn1c(SCC(=O)N(C)c2c(N)n(Cc3ccccc3)c(=O)[nH]c2=O)nnc1-c1cccc(C)c1 | 21.2
54 | CCOc1ccc(/C=N/NC(=O)c2cc(-c3ccco3)nc3ccccc23)cc1 | 4.76
55 | CC(C)c1ccccc1 | 9.15
56 | CN1CCSc2ccc(C(=O)NCc3cccc(Br)c3)cc21 | 11.7
57 | CCCn1nc(C(=O)OCC(=O)c2ccc3c(c2)NC(=O)CO3)c2ccccc2c1=O | -2.27
58 | CCCCCn1c(SCC#N)nc2cc(C(=O)NCC3CCCO3)ccc2c1=O (stereo not drawn) | -9.04
59 | c1ccc2sc(NC3=NCCN3)nc2c1 | -4.67
60 | COc1ccc(OC)c(-c2csc(NC(=O)c3ccc(F)cc3)n2)c1 | 4.66
61 | CCOC(=O)N1CCC(N2CCCC(C(=O)c3ccccc3OC)C2)CC1 (stereo not drawn) | -59.3
62 | O=S1(=O)CCN(C(CO)c2ccccc2)CC1 (stereo not drawn) | 12.4
63 | CCOC(=O)C1=C(c2ccccc2)OC(N)=C(C#N)C1c1ccc(Br)s1 (stereo not drawn) | 11.8
64 | Cn1nnnc1SCC1=C(C(=O)O)N2C(=O)C(NC(=O)C3CC3c3ccccc3)C2SC1 (stereo not drawn) | 20.1
65 | O=S(=O)(N/N=C\c1ccc(-c2ccccc2Cl)o1)c1ccccc1 | 2.34
66 | COc1ccc(N2CCN(Cc3cc(=O)c(OCC(=O)NC4CCCC4)co3)CC2)cc1 | 3.94
67 | CCN(CC)c1ccc(/C=N/NC(=O)c2c(Cl)cnn2C)c(O)c1 | 12.7
68 | O=C(CC1NCCc2ccccc21)Nc1ccccc1Cl (stereo not drawn) | 12.4
69 | COc1ccc(OCCC(=O)OCC(=O)NCc2ccc(F)cc2)cc1 | 13.7

Row | SMILES | hERG current change (%, negative = inhibition) at 1uM [%]
70 | COCCCNC(=O)CCn1c(=O)c2ccccc2n(CC(=O)Nc2c(C)cccc2C)c1=O | 13.7
71 | CCOC(=O)c1ccc(-n2nc(C)cc2C)cc1 | 3.64
72 | O=C(O)Cc1c[nH]c2ccc(O)cc12 | 12.6
73 | CCOC(=O)C(NC(=O)CC)(Nc1ccc(S(=O)(=O)Nc2onc(C)c2C)cc1)C(F)(F)F (stereo not drawn) | 12.7
74 | O=C(CCl)NCCNC(=O)c1cc(OCC(F)(F)F)ccc1OCC(F)(F)F | -0.848
75 | COCCN(CCOC)S(=O)(=O)c1ccc(C(=O)Nc2nc(-c3ccncc3)cs2)cc1 | 3.68
76 | Cc1ccc(OCC(=O)Nc2cc(NC(=O)COc3ccc(C)c(C)c3)cc(C(=O)O)c2)cc1C | 14.2
77 | CSC1=C(C#N)C(=O)NC(c2ccc(Cl)cc2)S1 (stereo not drawn) | 12.9
78 | CCOc1ccc(S(=O)(=O)NCCCN2CCCC2=O)cc1 | 14.3
79 | O=C(CSc1nnc(NC(=O)C2CCC2)s1)Nc1ccccc1Br | 2.61
80 | CCOc1ccc(/C=C2/SC(=S)N(n3c(C)ccc3C)C2=O)cc1 | 10.1
81 | CC(NC(=O)Nc1nnc(C(F)(F)F)s1)(C(F)(F)F)C(F)(F)F | 0.76
82 | S=c1[nH]c2cc(Br)cnc2[nH]1 | 18.2
83 | CCc1cc(CC)c(/C=N/NC(N)=O)c(CC)c1/C=N/NC(N)=O | 14.3
84 | CC(C)CN1CCN(Cc2cccc3nccnc23)CC1CCO (stereo not drawn) | 3.17
85 | O=C(O)c1nn(-c2cccc(C(F)(F)F)c2)ccc1=O | 15.1
86 | O=C(c1ccc(Cl)s1)N1CCOCC1 | 14.1
87 | CCOCc1[nH]c(=S)[nH]c(=O)c1Cc1ccc(OC(C)C)cc1 | 0.356
88 | COc1ccc(Nc2ncc(C(=O)N3CCN(c4ccccc4OC)CC3)c3ccccc23)cc1 | 3.52
89 | COc1ccc2ccc(OCC(=O)Nc3cc(C)on3)cc2c1 | 15.9
90 | Br.O=C(CN1CCSC1=NCc1ccccc1)c1ccccc1 | -0.299
